Assay results taken from the supplement of paper PMC11417369.
This is one part of the list.

The sequences below were run on PfSIP2 AP2 domain 1 (GST-tagged) (assay: gcPBM binding intensity (ln(normalized median fluorescence intensity)); higher = stronger DNA binding).
How it was run: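 DNA-binding domains from P. falciparum, fused to GST and produced in E. coli, were put on an Agilent 4 × 180k double-stranded probe array for 1 h in 1× PBS holding 1% milk, 0.2 mg/ml BSA, 0.5% salmon testes DNA and 0.03% Triton X-100. Probes were primer-extended, 36 bp long and drawn from intergenic genomic regions, with negative controls included. After Alexa488 anti-GST antibody detection and a 488 nm scan, binding intensity was set as the highest Masliner-normalised natural-log median intensity across replicate spots of either probe orientation.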

Row | Sequence | gcPBM binding intensity (ln)
1 | GTATAATATATTTATAGTACATAATTATTTATAAAT [XGTACX_site1826] | 7.16
2 | TTTTTAAATAACCTATATATTATTATGAAACATAAA [CACACA_negctrl_site916] | 6.86
3 | TATATATATATATTCACACATAAAAATAAAATAAAA [CACACA_site4774] | 8.88
4 | ATATATATATATGTGTGTACTTATTTATTTATTTGT [XGTACX_site549] | 9.27
5 | TTTTCTTAATATTTATGTATATATATAATATGATAT [TGCATGCA_negctrl_site572] | 6.99
6 | TAATAAATCCTATATAGTACATATATGCAAGTATGT [XGTACX_site3955] | 7.12
7 | ACATTAATATAAAGCACACATATATATAATATATAT [CACACA_site508] | 7.35
8 | ATTGATTTTTAATATACACACATAAGTACCACAAAA [CACACA_site339] | 7.3
9 | AAAAATATAAACTGCACACACAAAAAAAAAAGAGAA [CACACA_site1367] | 7.44
10 | TATAACATATTTATATATGACATTATCTATTCATTT [CACACA_negctrl_site864] | 6.84
11 | CCCGTAAATACAAAAAGTACAAAAGTTCATCTTATA [XGTACX_site1154] | 6.91
12 | ATATTATGTGATTGTGCACACTGGAGATTTTTTTTA [CACACA_site1453] | 9.01
13 | CAATATTATTATATTTGTACACATGCGTATTTTTTA [XGTACX_site4154] | 6.94
14 | TTAATATTGTATCCAAGTACACAAATTATTATATTT [XGTACX_site8067] | 7.11
15 | CATGATATATAAATATGTACATATATATATATATAT [XGTACX_site1760] | 9.56
16 | TAATAATAATATAAAATACACACCTATTATTTTTAC [CACACA_site4003] | 6.97
17 | ATATAAATATAAACATGTACATATATATATATATAT [XGTACX_site2824] | 9.04
18 | GAAACGTTTTTGAGTAGTACACACACAATAAGGATG [XGTACX_site6809] | 7.4
19 | TTTGTAATAACATATGCATGTTCAAAAAATAAAATA [TGCATGCA_site817] | 6.9
20 | ATTTTTTTATAAAATTTTTTATATATTAAATATTAT [CACACA_negctrl_site135] | 6.76
21 | ACGTTTTATTTTTATTGTACTCACATTGAAATGAAT [XGTACX_site6094] | 7.58
22 | ATATATTTATACATTTGTACATATACATATTTCTGA [XGTACX_site3982] | 7
23 | ATTTTTTTTGTAAAAGTGCATATATATATATATATA | 9.41

Row | Sequence | gcPBM binding intensity (ln)
24 | AAAATTGTGCTTTCACGGACACAAGATCGAAATAGA [XGTACX_site4068] | 6.88
25 | AAATTTATATAAAACAGTACAATTAAAAAAAAAATA [XGTACX_site8015] | 6.92
26 | ATTTATCTATATATATGTACATATTATTTTTGTGGT [XGTACX_site7390] | 7.21
27 | ATAAAAAAATATAAATGTACATATATATATATATAT [XGTACX_site5620] | 9.56
28 | GATATACAATTTAAGTGTACTATAATAAAATATATA [XGTACX_site3013] | 6.98
29 | TATATTAATTCGTTTTGTACACACATAATGAATAAT [XGTACX_site4618] | 6.93
30 | TTTAAAATATTGTATTGTACGCAATAAAAAATACCA [XGTACX_site182] | 7.16
31 | ATAAGCATCTTTTGTGTGCACATAACAAAAAAAAAA | 8.74
32 | ATTAAATAAAATCATGCACACAATATATATTTTAAG [CACACA_site2495] | 7.97
33 | TCTAACATATCTTTAATACACACTTAAAAAAGTACT [CACACA_site652] | 7.03
34 | AAATACATATATACATGTACATAAATATATATATAT [XGTACX_site5367] | 8.9
35 | ATAGATATACATATCACACATATATATATATATATA [CACACA_site4985] | 9.84
36 | TAAGGTAGTTCTGTATCACACACATATATATATATA [CACACA_site8693] | 9.42
37 | TGAGAAAGCGCATATTGTACTATATATTTTAACCAC [XGTACX_site4098] | 7.19
38 | AATCCATTCTATTTTTTACACACGTATGTAAATATT [CACACA_site8860] | 7.07
39 | AATATATATGGACATGCATGGACATAATAATCTATT [TGCATGCA_site838] | 6.75
40 | GAAAATAATGTTACATGTACGAATATGTAACTATTG [XGTACX_site6833] | 6.84
41 | CATAAAAATGTATCAAGTACACATTTATTTATCCAT [XGTACX_site152] | 7.18
42 | GTATAACACAAGTGAAGTACAGGGGTAAACATTTAT [XGTACX_site3203] | 7.21
43 | TACAGATAAAAGTACACACACACACCGATATATATA [CACACA_site4675] | 7.46
44 | TTAAAATAAAGAGCAGTGCGCATATTTTGTTATTAT [GTGCAC_site9753] | 7.79
45 | ATAAAAAAATATGTAAACATATATATGTATTTATGT [CACACA_negctrl_site1517] | 7.04
46 | AAACAATTTTTATTTTGTACATAACAATATATTTAT [XGTACX_site1375] | 6.91

Row | Sequence | gcPBM binding intensity (ln)
47 | TTTTTTTTTAAAGAAAATAAAAATATGTACTTGACA [CACACA_negctrl_site1113] | 6.96
48 | TTTTTATATTTTATTAGTACTTATTATATATATAAT [XGTACX_site4900] | 7.15
49 | ATTTTACATATTTGCACACATATATTTATATACATA [CACACA_site854] | 7.41
50 | TTATTTGTTTAATATGCATGCTAAAAGGGTTGATGT [TGCATGCA_site581] | 7.34
51 | GAGTAAAACAAATATACACACCATAAAGTTATAAAA [CACACA_site5008] | 6.86
52 | AATATAAAAATGCACACACACAAAAAAAAAAAAAAA [CACACA_site6546] | 7.37
53 | AATTTAAATTCATCACGTACATACGTGAATATACAC [XGTACX_site5220] | 7.24
54 | TTTTTTTTTTGATGTTGTACATATATATTATATAAT [XGTACX_site2765] | 7.17
55 | GCTATTTATTTATATTGTACTTTTTTTTTTTTTTTT [XGTACX_site3624] | 7.67
56 | TATTTTGTTCTTTCCACACACAAATACCTATCTTGT [CACACA_site7833] | 7.39
57 | ATTCGTGAACTAGCCAAACACACGAAAAAAAAAAAA [CACACA_site3342] | 7.04
58 | ATGTAACATAGGAAATGTACATATAAATATAATTTA [XGTACX_site6452] | 6.86
59 | TTTTATTGATTATTCATAAATATGCTATTCATCTAA [CACACA_negctrl_site1084] | 6.94
60 | TTTTTTTTTGGGGGTGCATGCAAGACATATATTTAA [TGCATGCA_site228] | 11.6
61 | CATACATATATATATACACACATACATATATATACA [CACACA_site8165] | 7.33
62 | TATTTTAATATTTGTAGTACAGATTGAAATGACGAA [XGTACX_site4805] | 7.85
63 | ATATACGCATTAATAACACACAATATGATAACAAAT [CACACA_site3623] | 7.2
64 | AATATAATCTTTCAAAAGAAAAAGACTTCATGAAAA [CACACA_negctrl_site1331] | 6.65
65 | AAAATGTATGGAATGCTCTTTTTTAAGTATTATATA [GTGCAC_negctrl_site175] | 6.69
66 | ACAAAATTGATATATGCACACATATATATATTAAAT [CACACA_site8152] | 7.26
67 | GTAGGTTTATATTGTAGTACATACAAACGTTAACAA [XGTACX_site5476] | 7.14
68 | TTTATTTATTATTAAAGTACTAAAATATATTATTAT [XGTACX_site4887] | 7.18
69 | ATACGTATTTTCTTTTGTACATATATATAAAATATT [XGTACX_site2675] | 7.23

Row | Sequence | gcPBM binding intensity (ln)
70 | TATATTTATTAGTTTCGTACGTACAAAGTTATTTTT [XGTACX_site8847] | 7.07
71 | AATATTGCACCATTTTGTACATAATATATTCAAATA [XGTACX_site475] | 10.7
72 | TGGTATCAAAAGAATACACACACACCGACATATATA [CACACA_site9265] | 6.92
73 | GAATATAAACATATTACACACATCTATCTGTACATT [CACACA_site5114] | 7.04
74 | GTGGGAAACATAAACACACACAAAAAGAAAAAATAG [CACACA_site4810] | 6.97
75 | TACATACATACATACACACACACATATAAATACATA [CACACA_site4626] | 8.04
76 | GTTTTATTTATTTCATGTACACAAAAAAGGTTTTAA [XGTACX_site6525] | 7.56
77 | TCTCTAACTTTTAATACACACAAATAAATAAATAAA [CACACA_site6245] | 7.38
78 | AATACATATATATATTGTACATATAGGGAAAAATTA [XGTACX_site2275] | 7.06
79 | AAAATAAAATAATAAAATAAAATAATAATAAAATAA [TGCATGCA_negctrl_site401] | 6.68
80 | AAAAAAAACGAACACACACACAAATATGTAAAAATA [CACACA_site6673] | 6.9
81 | CACACAATGGCTAGCTGTACATAATATATATCTACA [XGTACX_site4691] | 7.12
82 | TAAAAACAAAAATGTTGTACATAATATAAAACAATT [XGTACX_site6380] | 7.04
83 | TATATAAATATACAAACACACATACAAACATATATA [CACACA_site4754] | 6.96
84 | GAAAATAAAATAAATGCATGTAAATTTAATGTAATG [TGCATGCA_site996] | 6.87
85 | AAAAAAAAAAAATGTGCATGCTATATATATATATAT [TGCATGCA_site727] | 9.58
86 | TTAACAAATAGACACACACACACACGCAAAAAAAAA [CACACA_site6387] | 7.14
87 | ATATATATATTTACATGTACACATCTATATATAAAC [XGTACX_site5581] | 8.31
88 | TTTTTTTTTCATTATTGTACATTGAAACTTCATTTT [XGTACX_site6041] | 6.69
89 | GCATAAATCAAACACACACACATATATATATATATA [CACACA_site2422] | 9.73
